{
  "source": "PubChem BioAssay AID588855",
  "about": "(National Center for Advancing Translational Sciences (NCATS), 2011)",
  "note": "Several values for one entry are separate records, joined by “and”; a condition that tells them apart may be missing. Equal values may be shown once. The whole screen tested about 410,000 compounds, of which about 5,000 (1.2%) were called active. The inconclusive results got no clear call from the source; some entries with a clear call stand among them for comparison. Calls follow the shape of the dose curve; as a rule, active = well fitted inhibition curve with a large enough effect; inconclusive = small, poorly fitted or top-dose-only effect; inactive = no such curve, though single readings can be large or run the other way. A potency beside an inconclusive call is a rough fit, not a confirmed value. Square brackets hold non-standard residues; d marks the D form. Peptide text beside a SMILES is read from it. * marks the point of attachment. NMeV = CN[C@H](C(=O)O)C(C)C; X4 = C#CCCC/C(=C\\C(=O)*)OC",
  "data": [
    {"assay": "qHTS for Inhibitors of TGF-b; also: nearly all actives have a fitted effect of over 65% in size; also: potency is read from the fitted curve at half-maximal effect; tags tell the direction and shape of the fitted curve; as to activity, negative = inhibition: % is scaled to controls: 0 for no effect and ±100 for the full control effect", "conditions": "HepG2 CAGA-GFP TGF-b/SMAD3 reporter, GFP fluorescence, 18 h, TGF-beta stimulated, 500 pg/mL final; series mostly up to 46.1 µM; activity, negative = inhibition: at the top concentration", "outline": "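TGF-beta reporter screen: HEPG2 CAGA-GFP, 1% FBS, 500 pg/mL TGF-beta final, 18 h; per-cell GFP summed per well; curves fitted and categorized by class.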", "values": [
      {"smiles": "Nc1nc(-c2cccs2)c(NC(=O)c2ccccc2)s1", "Potency": "inconclusive: 35.5 µM [inhibitor, single point]"},
      {"smiles": "Cc1ccc(NC(=O)C(c2ccccc2)c2ccccc2)nc1", "activity, negative = inhibition": "inactive: -6.6%"},
      {"smiles": "COc1ccc(C(=O)N(Cc2ccco2)Cc2cccs2)c(O)c1", "Potency": "inactive"},
      {"smiles": "Cc1cccc(C)c1OCC(=O)Nc1cccc(NC(=O)c2ccco2)c1", "Potency": "inconclusive: 35.5 µM [inhibitor, single point]"},
      {"smiles": "CCOc1ccc(S(=O)(=O)N2CCN(C(=O)c3cc(-c4ccccc4)nn3-c3ccccc3)CC2)cc1", "Potency": "inconclusive: 3.16 µM [inhibitor, partial curve, poor fit]"},
      {"smiles": "Cc1cc(N2CC(C)OC(C)C2)n2cc(-c3ccccc3)nc2n1", "note": "(stereo not given)", "activity, negative = inhibition": "inactive: -0.856%"},
      {"smiles": "COc1cc(/C=C/C(=O)OCC(=O)N2CCN(S(=O)(=O)c3ccc(C)cc3C)CC2)cc(Cl)c1OC", "Potency": "inconclusive: 3.98 µM [inhibitor, single point]"},
      {"smiles": "Oc1c(Br)cc(Br)cc1/C=N/NC(=S)N[C@H]1CC2C=CC1C2", "note": "(stereo not given in full)", "Potency": "inconclusive: 15.8 µM [inhibitor, partial curve, poor fit]"},
      {"smiles": "COc1cc(CN2CCNC(=O)C2CC(=O)NC2CCCCC2)cc(OC)c1", "note": "(stereo not given)", "Potency": "inconclusive: 1.12 µM [inhibitor, full curve, poor fit]"},
      {"smiles": "CC(=O)c1cccc(NC(=O)NC2CC(=O)N(c3ccc4c(c3)OCCO4)C2)c1", "note": "(stereo not given)", "activity, negative = inhibition": "inactive: 0%"},
      {"smiles": "O=C(OC12CC3CC(CC(C3)C1)C2)c1ccc(NCc2cc(O)ccc2O)cc1", "Potency": "inconclusive: 22.4 µM [inhibitor, single point]"},
      {"smiles": "CC(=O)Oc1ccc(Cn2c(C)c(C(=O)NCc3ccc4c(c3)OCCO4)sc2=O)cc1", "activity, negative = inhibition": "inactive: 1.08%"},
      {"smiles": "Cc1cccc(C(=O)Nc2nnc(S(=O)(=O)N3CCC(C)CC3)s2)c1", "Potency": "inconclusive: 4.47 µM [inhibitor, full curve]"},
      {"smiles": "COc1ccccc1NS(=O)(=O)c1cccc(NC(=O)Nc2cccc(Cl)c2)c1", "Potency": "inconclusive: 6.31 µM [inhibitor, full curve, poor fit]"},
      {"smiles": "O=C1CCC2CCCCC2(O)O1", "note": "(stereo not given)", "Potency": "inconclusive: 14.1 µM [inhibitor, single point]"},
      {"smiles": "COc1cccc2c1OC[C@@H](CO)[C@H]2N(C)C(=O)Nc1ccc(Cl)cc1Cl", "Potency": "inconclusive: 3.55 µM [inhibitor, partial curve, poor fit]"},
      {"smiles": "O=C(CCc1c[nH]c2ccccc12)N1CCN(c2ccc(O)cc2)CC1", "activity, negative = inhibition": "inactive: -9.29%"},
      {"smiles": "C=CCn1c(CCC(O)CCCCC)n[nH]c1=S", "note": "(stereo not given)", "activity, negative = inhibition": "inactive: 12%"},
      {"smiles": "Cc1ccccc1OCc1nc2ccccc2c(=O)n1N", "activity, negative = inhibition": "inactive: -3.57%"},
      {"smiles": "COc1ccccc1N1CCN(C(=O)c2cc3c(s2)-c2ccccc2OC3)CC1", "Potency": "inconclusive: 35.5 µM [inhibitor, single point] and inconclusive: 20 µM [inhibitor, single point]"},
      {"smiles": "Cc1ccccc1CN1CCC(CNC(=O)c2cc3ccc4cccnc4c3[nH]2)CC1", "Potency": "inconclusive: 17.8 µM [inhibitor, single point]"},
      {"smiles": "Cc1ccc(C)c(N2CCN(CC3CC=CCC3)CC2)c1", "note": "(stereo not given)", "Potency": "inconclusive: 35.5 µM [inhibitor, single point]"},
      {"smiles": "CC(C)(C)C(=O)O/N=C(\\N)c1ccc(Oc2cc(Cl)cc(Cl)c2)c([N+](=O)[O-])c1", "activity, negative = inhibition": "inactive: 0.605%"},
      {"smiles": "C#CCCC/C(=C\\C(=O)N(C)[C@H](C(=O)N(C)[C@H](C(=O)N(C)[C@H](C(=O)N(C)[C@H](C(N)=O)C(C)C)C(C)C)C(C)C)C(C)C)OC", "note": "(X4-[NMeV][NMeV][NMeV][NMeV]-NH2)", "Potency": "inconclusive: 25.1 µM [inhibitor, single point]"},
      {"smiles": "OCCNc1nc(N2CCOCC2)nc(N2CCOCC2)n1", "activity, negative = inhibition": "inactive: -1.36%"},
      {"smiles": "Cc1ccccc1C(=O)N1CCC(C(=O)Nc2cc(C(F)(F)F)ccc2N2CCCC2)CC1", "Potency": "inconclusive: 6.31 µM [inhibitor, single point]"},
      {"smiles": "CC(=O)c1cccc(NC(=O)Cn2c(-c3cncs3)nc3ccccc32)c1", "activity, negative = inhibition": "inactive: 8.27%"},
      {"smiles": "Cc1cccc(N2CCN(S(=O)(=O)c3nnc(NC(=O)c4ccc(Cl)cc4)s3)CC2)c1", "activity, negative = inhibition": "inactive: -10.2%"},
      {"smiles": "CCOC(=O)C1(Cc2ccc(OC)cc2)CCN(C(=O)c2cc(C)nn2C)CC1", "Potency": "inconclusive: 8.91 µM [inhibitor, partial curve, poor fit]"},
      {"smiles": "O=C1CC(c2nnc(Cc3ccc(F)cc3)o2)CN1c1ccccc1", "note": "(stereo not given)", "activity, negative = inhibition": "inactive: 3.91%"},
      {"smiles": "N/C(=N\\OC(=O)c1ccccc1Cl)c1cccc([N+](=O)[O-])c1", "activity, negative = inhibition": "inactive: -7.09%"},
      {"smiles": "Cc1cc(OCCCN2CCN(Cc3ccccc3)CC2)ccc1[N+](=O)[O-]", "Potency": "inconclusive: 28.2 µM [inhibitor, single point]"},
      {"smiles": "O=C(c1ccc(=O)[nH]c1)N(c1ccccc1)C(CCc1ccccc1)c1nc2ccccc2[nH]1", "note": "(stereo not given)", "Potency": "inconclusive: 15.8 µM [inhibitor, single point]"},
      {"smiles": "O=C(COC(=O)C1CC2C=CC1C2)Nc1c(Br)cc([N+](=O)[O-])cc1Br", "note": "(stereo not given)", "activity, negative = inhibition": "inactive: 11.9%"},
      {"smiles": "CCC1CCCCN1C(=O)CSc1n[nH]c(-c2ccccc2)n1", "note": "(stereo not given)", "Potency": "inconclusive: 2.24 µM [inhibitor, partial curve, poor fit]"},
      {"smiles": "COc1ccc(C(=O)NCCCNc2nc3cc(C)cc(C)c3cc2C#N)cc1", "activity, negative = inhibition": "inactive: -3.34%"},
      {"smiles": "O=c1[nH]c2ccccc2n2c(-c3ccccc3)nnc12", "Potency": "inconclusive: 35.5 µM [inhibitor, single point]"},
      {"smiles": "O=C1NC2(CCCCO2)CO1", "note": "(stereo not given)", "activity, negative = inhibition": "inactive: -3.23%"},
      {"smiles": "Cc1cc(Br)ccc1NC(=O)CN1C(=O)C2C3CC(c4ccccc4)C(C3)C2C1=O", "note": "(stereo not given)", "activity, negative = inhibition": "inactive: -14.3%"},
      {"smiles": "CC(=O)c1cc(F)c(N2CCN(C(=O)C(C)(C)C)CC2)cc1C", "activity, negative = inhibition": "inactive: -4%"},
      {"smiles": "Nc1nc(SCC(=O)N2CCc3ccccc32)[nH]c(=O)c1-c1ccccc1", "Potency": "inconclusive: 35.5 µM [inhibitor, single point]"},
      {"smiles": "CCCN1C(C)C(C(=O)OCC)=CN(Cc2cccc(I)c2)S1(=O)=O", "note": "(stereo not given)", "Potency": "inconclusive: 10 µM [inhibitor, partial curve, poor fit]"},
      {"smiles": "CC(=O)NCc1ccc(C(=O)CCl)s1", "Potency": "inconclusive: 20 µM [inhibitor, partial curve, poor fit]"},
      {"smiles": "CCOc1ccccc1CNC(=O)C1CCN(c2nnc(C)c3c(C)n(-c4ccc(C)cc4)nc23)CC1", "Potency": "active: 11.2 µM"},
      {"smiles": "CN(C(=O)COc1ccc(S(=O)(=O)N2CCOCC2)cc1[N+](=O)[O-])C1CCS(=O)(=O)C1", "note": "(stereo not given)", "activity, negative = inhibition": "inactive: 1.94%"},
      {"smiles": "COC(=O)CCC/C=C1/SCC(NC(=O)c2ccccc2)C1O", "note": "(stereo not given)", "activity, negative = inhibition": "inactive: 10.3%"},
      {"smiles": "CC1CC(C)(C)NC(=S)N1CCC(=O)N1CCc2ccccc21", "note": "(stereo not given)", "Potency": "inconclusive: 35.5 µM [inhibitor, single point]"},
      {"smiles": "C=CCC(NCc1ccccc1)c1ccc(Cl)cc1", "note": "(stereo not given)", "Potency": "inconclusive: 35.5 µM [inhibitor, single point]"},
      {"smiles": "O=C(CC1(O)C(=O)N(CCc2ccccc2)c2ccc(Br)cc21)c1ccccc1", "note": "(stereo not given)", "Potency": "inconclusive: 35.5 µM [inhibitor, single point]"},
      {"smiles": "OC(CBr)C[n+]1cccc2cc(Br)ccc21", "note": "(stereo not given)", "Potency": "inconclusive: 12.6 µM [inhibitor, partial curve]"},
      {"smiles": "COc1ccc(C(=O)Nc2ccc(S(=O)(=O)N(C)c3ccccc3)cc2)cc1", "Potency": "inconclusive: 15.8 µM [inhibitor, single point]"},
      {"smiles": "Cc1nnc2c(NC3CCCC3)nc3ccccc3n12", "Potency": "inconclusive: 4.47 µM [inhibitor, partial curve, poor fit]"},
      {"smiles": "Cc1c(C2=CCN(S(=O)(=O)c3ccc(Cl)cc3)CC2)c2ccccc2n1CC(=O)N1CCCC1", "activity, negative = inhibition": "inactive: -4.75%"},
      {"smiles": "O=C(COC(=O)c1ccccc1C(=O)c1ccc(Cl)c([N+](=O)[O-])c1)NC1CC1", "Potency": "inconclusive: 22.4 µM [inhibitor, single point]"},
      {"smiles": "C=CCn1c(SCC)nc2sc3c(c2c1=O)CCc1ccccc1-3", "Potency": "inconclusive: 6.31 µM [inhibitor, full curve, poor fit]"},
      {"smiles": "CCOC(=O)c1cccc(NC(=O)CC2C(=O)N(c3ccccc3)C(=O)N2Cc2ccco2)c1", "note": "(stereo not given)", "Potency": "inconclusive: 25.1 µM [inhibitor, single point]"},
      {"smiles": "CN1CCN(c2nc(-c3cccs3)cc(C(F)(F)F)n2)CC1", "activity, negative = inhibition": "inactive: 2.24%"},
      {"smiles": "COc1cc2cc(CCCOC(=O)c3cc(OC)c(OC)c(OC)c3)oc(=O)c2cc1OC", "activity, negative = inhibition": "inactive: -3.89%"},
      {"smiles": "Cc1cc(C=C2C(=O)c3ccccc3C2=O)c(C)n1-c1ccc(Cl)cc1", "activity, negative = inhibition": "inactive: 6.25%"},
      {"smiles": "CCOC(=O)C1CCN(C(=O)c2ccccc2Oc2ccccc2)CC1", "activity, negative = inhibition": "inactive: -10.9%"},
      {"smiles": "CN(C)CCCNc1oc(-c2ccc(Cl)cc2)nc1C#N", "activity, negative = inhibition": "inactive: 6.76%"},
      {"smiles": "C=CC[C@H](CC(=O)N(CCO)Cc1ccccc1)C(=O)N[C@H](COC(=O)[C@@H](CC=C)CC(=O)OC(C)(C)C)Cc1ccccc1", "Potency": "inconclusive: 35.5 µM [inhibitor, single point]"},
      {"smiles": "O=S(=O)(NCC(c1ccco1)S(=O)(=O)c1ccccc1)c1cc(F)ccc1F", "note": "(stereo not given)", "Potency": "inconclusive: 2 µM [inhibitor, full curve]"},
      {"smiles": "Cc1cccc(-c2cc(C(=O)Nc3cccnc3)c3ccccc3n2)c1", "activity, negative = inhibition": "inactive: 6.51%"},
      {"smiles": "Fc1ccc(Nc2nc(SCc3ccc(Cl)cc3)nc3ccccc23)cc1", "Potency": "inconclusive: 7.08 µM [inhibitor, partial curve]"},
      {"smiles": "O=C(COC(=O)c1ccc2ccccc2n1)c1ccc(F)cc1", "activity, negative = inhibition": "inactive: -2.69%"},
      {"smiles": "C[C@@]12C(=O)N(c3cccc(Cl)c3)C(=O)N1[C@@H]1c3ccccc3OC[C@@H]1[C@H]2c1ccccc1", "Potency": "inconclusive: 35.5 µM [inhibitor, single point]"},
      {"smiles": "CC(C)(C)OC(=O)N(c1cccc2cccnc12)S(=O)(=O)c1ccccc1Br", "Potency": "active: 4.47 µM"},
      {"smiles": "NC(=NCCc1ccccc1)NS(=O)(=O)c1ccc(F)cc1", "activity, negative = inhibition": "inactive: 8.66%"},
      {"smiles": "C=CCc1ccc(OCCOCCN(C)C)c(OC)c1", "Potency": "inconclusive: 35.5 µM [inhibitor, single point]"}
    ]}
  ]
}
